Measurements as given in the supplement of paper PMC3334620.
The full ranking holds about 33,000 sequences; the median of “E-score (-0.5 to 0.5)” is about -0.021, and the highest 2% start at about 0.32. This is one part of the list.

Target: T1, Zap1 (UniProt P47043)
T1 sequence: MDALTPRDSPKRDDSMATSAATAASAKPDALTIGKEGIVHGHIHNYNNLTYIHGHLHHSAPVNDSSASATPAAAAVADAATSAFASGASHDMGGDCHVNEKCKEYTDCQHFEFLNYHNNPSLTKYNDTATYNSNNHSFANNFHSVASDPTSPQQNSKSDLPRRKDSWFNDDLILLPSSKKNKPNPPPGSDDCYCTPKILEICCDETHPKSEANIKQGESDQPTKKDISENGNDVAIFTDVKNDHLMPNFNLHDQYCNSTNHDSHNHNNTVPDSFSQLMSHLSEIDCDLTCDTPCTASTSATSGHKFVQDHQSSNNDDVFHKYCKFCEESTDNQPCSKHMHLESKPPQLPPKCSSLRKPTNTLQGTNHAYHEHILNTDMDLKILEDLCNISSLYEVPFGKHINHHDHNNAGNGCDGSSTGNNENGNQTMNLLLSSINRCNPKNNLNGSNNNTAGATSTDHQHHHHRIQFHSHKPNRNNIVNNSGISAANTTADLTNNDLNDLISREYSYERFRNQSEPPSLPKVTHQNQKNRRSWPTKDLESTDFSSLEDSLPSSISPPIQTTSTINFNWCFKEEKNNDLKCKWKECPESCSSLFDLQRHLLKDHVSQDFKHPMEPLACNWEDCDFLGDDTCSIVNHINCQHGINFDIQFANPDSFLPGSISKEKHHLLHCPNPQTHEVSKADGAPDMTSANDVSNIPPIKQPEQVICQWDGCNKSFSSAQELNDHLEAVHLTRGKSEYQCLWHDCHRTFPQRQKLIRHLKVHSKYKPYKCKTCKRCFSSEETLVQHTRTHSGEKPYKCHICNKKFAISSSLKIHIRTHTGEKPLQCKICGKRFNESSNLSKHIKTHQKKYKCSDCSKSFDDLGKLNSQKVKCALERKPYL
Assay: PBM E-score (8-mer binding enrichment) (E-score (-0.5 to 0.5)); higher = stronger / more preferred TF binding; most listed sequences are background and not binding sites
Conditions: protein concentration: 200 nM; construct: GST-full length
Procedure: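 Universal 'all 10-mer' protein binding microarrays (Agilent AMADID 015681) probed with GST-tagged S. cerevisiae TFs (full-length or DBD) made by in vitro transcription/translation (PURExpress), about 100-200 nM. Bound TF was detected with fluorescent anti-GST. Each ungapped 8-mer (which stands for itself and its reverse complement) is scored by the PBM enrichment score (E-score), a modified Wilcoxon-Mann-Whitney statistic from -0.5 to +0.5, computed with the Universal PBM Analysis Suite. Scale: above 0.35 generally sequence-specific binding.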

| Sequence | PBM E-score |
| --- | --- |
| AACGTATC | -0.187 |
| CCGGTACC | 0.414 |
| ATAGAAAC | 0.185 |
| GTAAGGAC | -0.0105 |
| AAGAGCTT | -0.0703 |
| GTAACGGA | 0.0778 |
| GTTTAAAC | 0.222 |
| ACAGGACG | -0.215 |
| AATACTAC | 0.198 |
| AGTAGACG | 0.0189 |
| ACGCTATC | -0.235 |
| GAAGTGTA | -0.204 |
| CCTCCGTC | -0.107 |
| GATTCCAA | 0.0755 |
| ATACTATC | -0.167 |
| GCGTGCCA | -0.242 |
| CCCAGGAC | -0.0256 |
| CGTGTAAG | -0.0832 |
| TATGACCA | 0.288 |
| CGTCGTCA | -0.135 |
| TCGAACCA | 0.118 |
| GCAAGAGA | -0.213 |
| ACCGATTC | -0.14 |
| GGCGGTTA | 0.324 |
| GCTCGTAC | -0.135 |

| Sequence | PBM E-score |
| --- | --- |
| CATCTGAA | 0.0186 |
| GAATCATC | -0.234 |
| AGTCAGGC | -0.101 |
| ATAGACTG | -0.205 |
| CGAAACTC | -0.114 |
| AAGGATCT | -0.154 |
| CCGGAACG | -0.179 |
| AGCAGGAA | -0.0425 |
| CTGTGATA | -0.0164 |
| ATCCGAAT | 0.151 |
| AGGCTGGG | -0.0166 |
| ACCTCTAA | 0.285 |
| AATACATG | -0.136 |
| CGATATTC | -0.0428 |
| TGTATTAA | 0.223 |
| ACGACCAG | 0.0603 |
| CTGTGGTC | 0.123 |
| AGCATTAA | -0.0721 |
| AAACCCCA | 0.261 |
| ACGCGCGC | 0.136 |
| CTATCAGA | -0.0946 |
| ACAACTAC | 0.126 |
| GTAGTAAA | 0.122 |
| GTCTTCAC | -0.179 |
| CTATCAAG | 0.113 |

| Sequence | PBM E-score |
| --- | --- |
| GGGGCCTA | -0.136 |
| ACATAATG | 0.0777 |
| ACGATAAT | 0.105 |
| ATAATTAC | 0.222 |
| GTCTTCCA | -0.128 |
| ATCCGCAG | 0.0242 |
| CGCTATAG | -0.238 |
| GCACGTAA | -0.0744 |
| GTTAGGTA | 0.298 |
| ATATCGTA | 0.0358 |
| AAGGACAG | -0.0292 |
| CTGCGAAC | -0.0819 |
| AATGGAGG | -0.175 |
| AGATATAC | -0.0654 |
| GCGACGGA | -0.262 |
| ACAGGAGG | -0.146 |
| ATAGAGCC | -0.181 |
| GGCAGGTA | 0.0889 |
| CCAAGGTA | 0.258 |
| AAAGACTC | -0.0734 |
| CCATGCCG | -0.114 |
| ATATTAGA | 0.166 |
| GTGTTAAA | 0.0467 |
| AAGGATAA | -0.0167 |
| ACCGGCTA | 0.034 |

| Sequence | PBM E-score |
| --- | --- |
| GCTTGACC | 0.214 |
| GGAAGCGA | -0.14 |
| AAAGGAGA | -0.118 |
| ATGTCCGG | -0.00626 |
| AGAAACGC | -0.011 |
| TGAATTCA | 0.174 |
| AGATGTTA | -0.14 |
| AAAAAGTT | 0.0802 |
| GGACATCA | 0.0434 |
| AGATATGA | 0.0313 |
| CAGATACG | -0.0298 |
| AAACGCCT | -0.318 |
| CCACGTCA | -0.208 |
| GATCGTGA | 0.0072 |
| CGCTCAGC | -0.137 |
| CGAGTGAA | -0.067 |
| GAAATGTA | -0.0667 |
| CGTCTGCA | -0.0236 |
| CTCGAAGA | 0.0261 |
| ATCTAGAC | 0.0431 |
| GTCTGAGA | -0.248 |
| CATCTCAA | 0.00336 |
| GACTTCCA | -0.327 |
| AAATCTCA | 0.18 |
| TGACCGCA | 0.232 |

| Sequence | PBM E-score |
| --- | --- |
| CAGAATAC | 0.0783 |
| CCCCGCAC | -0.0153 |
| AATGTAAC | 0.194 |
| GGAGAGGA | -0.282 |
| AGCAAATC | 0.00378 |
| CCAATCCG | -0.072 |
| AGGGTCAC | 0.417 |
| GAGGGTTA | 0.45 |
| TAAATGTA | 0.137 |
| GCCGACCC | -0.0441 |
| ACTGTTGC | -0.173 |
| AGCTAAGA | -0.167 |
| GAGTCAAA | -0.237 |
| ACGTCATC | -0.266 |
| CATTCTCG | 0.0376 |
| CCATGGGC | 0.0237 |
| CACATAAA | 0.228 |
| ATTGATAC | 0.185 |
| GGTGTGAC | -0.0885 |
| CAACACTC | -0.0692 |
| TAGTCAGA | -0.13 |
| CGCCCATA | -0.0169 |
| GCCGTGTA | -0.0617 |
| CGTCGTAG | -0.189 |
| CGAGCGAA | -0.162 |

| Sequence | PBM E-score |
| --- | --- |
| GTCGAGAC | -0.0863 |
| TTGCCCAA | -0.147 |
| AGTCCGTG | -0.261 |
| GGCGAGAA | -0.0576 |
| CCTTGACC | 0.227 |
| CTGAACTA | -0.11 |
| AACTCATG | 0.129 |
| GAGGGTCC | 0.134 |
| AATTGCAG | 0.0785 |
| TACTCACA | 0.0205 |
| CGTATGTA | -0.0732 |
| ACGGCACG | -0.234 |
| GCGCCGAA | -0.187 |
| CATGATCC | 0.223 |
| ACCCAGCC | -0.139 |
| TAGTTAAA | 0.234 |
| GGCGGTCA | 0.12 |
| AAAGCCGA | -0.219 |
| CCTACCTA | 0.0396 |
| CAGAGCCC | -0.256 |
| CCGTGGGA | -0.205 |
| CCGACCAC | -0.0404 |
| CTGCTAGC | -0.42 |
| CTGAATTA | 0.0845 |
| AAATTACT | 0.0438 |

| Sequence | PBM E-score |
| --- | --- |
| AGCGCAAT | 0.0635 |
| ACTAGGAC | -0.037 |
| AGATCTTG | -0.0733 |
| AACTCTGA | 0.0729 |
| AACCAGAA | 0.219 |
| GAAAGTGA | -0.0718 |
| AGGCATAA | -0.124 |
| CTGCACTA | 0.0904 |
| CAATATAG | 0.138 |
| CAGAAAGC | -0.078 |
| AAGTCCGT | -0.0811 |
| ACGTCGAA | -0.105 |
| GGTTTAAA | 0.18 |
| GTGCACAA | -0.0541 |
| ATTGTCTG | 0.144 |
| ATGGTCGG | 0.173 |
| AGTACCGC | 0.247 |
| CGTTATGC | -0.0965 |
| CTTACTGA | -0.0873 |
| CCCGATAG | -0.0131 |
| ATCTACAC | 0.112 |
| CGGCCTAC | -0.00197 |
| ACTTTGTA | 0.209 |
| CAATTCCA | -0.0645 |
| CCCCTACC | 0.0857 |

| Sequence | PBM E-score |
| --- | --- |
| ACAAAAAG | 0.141 |
| ACAAGCAT | -0.136 |
| GAAGTAGA | 0.00766 |
| ATGCTGAC | -0.0875 |
| CGATGCTC | -0.255 |
| TAAACGGA | 0.104 |
| TCACTGCA | 0.0966 |
| AGCCACAG | -0.199 |
| CGATACGA | 0.0895 |
| ACTTTTAT | 0.0181 |
| AATAAGAT | -0.0599 |
| TGGGTACA | 0.174 |
| TAGCGTGA | 0.0134 |
| GGGTAATA | 0.348 |
| ATCATTTG | 0.0524 |
| TTAGCGAA | 0.0536 |
| CATTGAAG | -0.213 |
| CGGCTCGC | -0.0535 |
| CAGCAAAC | 0.139 |
| CCCTACTA | 0.0859 |
| GATATGTA | 0.0232 |
| CTCCATTA | -0.114 |
| AGGCAGCA | -0.141 |
| CGTGCCAG | -0.316 |
| AAGGTGAT | 0.296 |

| Sequence | PBM E-score |
| --- | --- |
| CCGACGAC | -0.00208 |
| AATATAAT | -0.0639 |
| CCTTAGAC | 0.0339 |
| ACCACAAA | 0.35 |
| ATCGTCCC | 0.0745 |
| CCCTCCAG | 0.215 |
| AACCTCGC | 0.295 |
| GACCGAGA | -0.0995 |
| AAGCGTCG | -0.338 |
| GTTGCCGA | -0.0812 |
| CGTCTTCC | -0.255 |
| GCCATCAA | -0.0506 |
| TAACTTGA | 0.194 |
| CCTACGCA | -0.125 |
| AGCCTACT | -0.212 |
| AGTCGCTC | -0.182 |
| CAGCATTC | -0.223 |
| ACTTCTGG | -0.0196 |
| ATCTGAAC | 0.0088 |
